Among the data in PubChem BioAssay AID463173 (ICCB-Longwood Screening Facility, Harvard Medical School, 2010) are survival values, retold here.

Each structure is given as a SMILES string. Hit rate of the full screen: of about 52,000 compounds, about 1,700 (3.3%) were called active. Rule as the data show it: active = survival mostly below about 52% (no sharp cut-off); inactive = mostly above about 56%. This is one part of the list.

This assay deals with Wild type. Put plainly: S. aureus survival, RN4220 and DeltatarO strains – OD600, teichoic acid synthesis inhibitors, primary screen (AID 463173). To be noted: S. aureus RN4220 wild type/DeltatarO growth, OD600, 18 h, stronger effect = lower value, screened at 18.75 µg/mL (by protocol).
As to `COc1ccc(N2CCN(Cc3nnnn3C3CCCCC3)CC2)cc1`, the survival is inactive: 109%.
Under `CC1CCN(C(=O)CN2C(=O)C(C)(C)Oc3ccc(C(=O)NC(C)C)cc32)CC1` stands inactive: 99%.
In the case of `N#Cc1c[nH]n2c(NC3CCCC3)c(-c3ccc(Cl)cc3)nc12`, the survival was inactive: 51%.
Regarding `Cc1ccc(CNc2nc3ccc(C)cc3n3nnnc23)cc1`, the survival was inactive: 93%.
As for `CCc1ccc(NC(=O)C(=O)NCCc2sc3nc(-c4ccc(OC)cc4)nn3c2C)cc1`, the survival is inactive: 81%.
With `CC(=O)Nc1nc(N(C)C)nc(N(C)C)n1` the figure was inactive: 90%; with `CN(C)C(=O)NC1C=CS(=O)(=O)C1` (stereo unspecified), inactive: 102%; with `CC1=C(C(=O)Nc2ccccc2)C(c2ccc(O)cc2)n2nc(SCc3ccccc3)nc2N1` (stereo unspecified), inactive: 115%.
Take `CCOc1ccccc1NC(=O)N1CCC2(CC1)Oc1ccccc1C(=O)N2Cc1ccccc1F`: the survival is inactive: 83%.
Under `Cc1ccc(NS(=O)(=O)c2ccc(-c3cc(C)no3)cc2)c(Br)c1` stands inactive: 78%.
With `Cc1ccc(CCNC(=O)c2c(C)nn(-c3ccc(F)cc3)c2-n2cccc2)cc1` the figure was inactive: 60%; with `Cc1ccccc1NC(=O)CSc1ccc(-c2cccs2)nn1`, inactive: 119%; with `O=c1[nH]c(SCc2ccc([N+](=O)[O-])cc2)nc2c1CCCC2`, inactive: 83%.
With `COc1ccc(Cl)cc1NC(=O)CCn1c(=O)oc2ccccc21` the figure was inactive: 63%; with `COc1ccc(NC(=O)c2cc(C3CC3)nc3c2c(C)nn3-c2ccccc2)cc1OC`, inactive: 72%.
In the case of `COc1ccc(NC(=O)Nc2nnc(N(CC(C)C)CC(C)C)s2)c(OC)c1`, the survival was inactive: 96%.
Under `CCN(C(=O)c1cc2c(s1)-c1ccccc1OC2)c1cccc(C(F)(F)F)c1` stands active: 14%; under `O=C(CSc1nnc(COc2ccccc2)o1)Nc1cc(C(F)(F)F)ccc1Cl`, inactive: 66%.
Under `Cc1ccc(CNC(=O)Cn2cccc2C(=O)c2ccccc2C)cc1` stands inactive: 82%.
With `O=C(Cn1c(-c2cccs2)cc2ccccc21)NCCCN1CCN(c2ccccc2F)CC1` the figure was inactive: 97%; with `O=C(CSc1nccn1Cc1ccccc1)Nc1ccc2c(c1)OCCO2`, inactive: 68%.
With `Cc1ccc(NC(=O)c2c(NC(=O)C(F)(F)F)sc3c2CCCCC3)cc1`, the survival is active: -3%.
Under `N#C/C(=C\c1cn(CC(=O)N2CCCC2)c2ccccc12)C(=O)NCc1ccc2c(c1)OCO2` stands inactive: 108%; under `COc1ccc(NC(=O)c2cc3c(C)nn(-c4ccccc4)c3s2)c(OC)c1`, inactive: 63%.
Take `Cc1c(Cl)cccc1Nc1nn2c(=O)c3ccc(C(=O)N(C)Cc4ccccc4)cc3nc2s1`: the survival is inactive: 71%.
Under `Cc1cc(C)cc(-n2c(SCC(=O)NC3CCCCC3)nc3c([nH]c4ccccc43)c2=O)c1` stands inactive: 83%.
Take `CCOc1cc(S(=O)(=O)NCCc2c(C)[nH]c3ccc(C)cc23)ccc1Br`: the survival is inactive: 134%.
On to `Cc1ccc(NC(=O)CCS(=O)(=O)c2ccc3c(c2)oc(=O)n3C)c(Br)c1`, for which the survival is inactive: 71%.
With `Cc1ccc2nc(COc3cccc(NC(=O)COc4ccc(F)cc4)c3)cc(=O)n2c1` the figure was inactive: 45%; with `COc1ccc(-c2nc(CSCC(=O)N3CCN(c4ccccc4)CC3)c(C)o2)cc1`, inactive: 53%; with `COc1ccc(N2CCN(C(=O)CSCc3ccc(C)cc3)CC2)cc1`, inactive: 130%.
With `CC(=O)c1cccc(NS(=O)(=O)c2cccc(S(=O)(=O)c3ccc(Br)cc3)c2)c1` the figure was inactive: 76%.
Consider `O=c1[nH]c(SCc2c(F)cccc2Cl)nc2c1CCCC2`, for which the survival is inactive: 91%.
For the molecule `c1cncc(C2=Nc3ccccc3C(c3cccnc3)=NN2)c1`, the survival is inactive: 107%.
Under `O=C(CN1CCN(C2CCCCC2)CC1)N(c1ccccc1)c1ccc(O)cc1` stands inactive: 115%; under `COCCNC(=O)c1[nH]c2cc(C)ccc2c1Sc1ccc(Cl)cc1`, inactive: 87%.
With `COc1ccc(C2=Nn3c([n+](C)c4ccccc43)SC2)cc1` the figure was inactive: 26%; with `O=C(Nc1cccc(-c2nc3ccccc3o2)c1)c1cccc2c(Cl)cccc12`, inactive: 68%; with `Cc1c(Cl)cccc1NC(=O)c1cc2nc(-c3ccc4c(c3)OCO4)cc(C(F)(F)F)n2n1`, inactive: 76%.
With `CC1=CC(c2ccccc2)=Nc2ccc(C)cc2N1` the figure was inactive: 103%.
`O=C(COc1ccccc1)OCc1cc(=O)n2nc(-c3cccs3)sc2n1`: the survival was inactive: 75%.
With `CC(C)(C)OC(=O)N1CCC(c2c(C(=O)Nc3ccc4c(c3)OCO4)cnn2-c2ccccc2)CC1` the figure was inactive: 71%; with `COc1ccc(CNC(=O)c2cnc3ccc(C)cn3c2=O)cc1`, inactive: 90%; with `Cc1ccccc1NC(=O)c1ccc(N(Cc2ccccc2)S(C)(=O)=O)cc1`, inactive: 69%.
`CCc1nn(CC(=O)NC(C)CC)c(=O)c2cc3occc3n12` (stereo unspecified): the survival is inactive: 78%.
Under `O=C(Nc1ccccc1F)NC1CCN(Cc2nnnn2Cc2ccc(F)cc2)CC1` stands inactive: 108%.
With `COc1cccc(OCCn2c(-c3ccc(Br)cc3)nc3ccccc3c2=O)c1` the figure was inactive: 89%; with `O=C(NCc1ccc2c(c1)CCN2C(=O)c1ccncc1)c1ccccc1F`, inactive: 128%.
Under `COc1ccccc1CNc1ncnc2c1nnn2C` stands inactive: 82%.
Consider `CCOCCCn1c(=N)c(S(=O)(=O)c2ccc(Cl)cc2)cc2c(=O)n3cccc(C)c3nc21`, for which the survival is inactive: 86%.
With `COC(=O)c1c(-c2cccs2)csc1NC(=O)c1ccc(C(C)C)cc1` the figure was inactive: 74%; with `COC(=O)c1ccccc1NC(=O)CCS(=O)(=O)c1nc(-c2ccc3c(c2)OCO3)cc(C(F)(F)F)n1`, inactive: 130%; with `COc1cccc(CNC(=O)Cn2c(=O)oc3cc(S(=O)(=O)N4CCCCCC4)ccc32)c1`, inactive: 146%.
With `COc1ccccc1NC(=O)C(=O)NCC(c1cccnc1)N1CCc2ccccc2C1` (stereo unspecified) the figure was inactive: 82%; with `O=C(NCc1ccc(F)cc1)c1ccc2oc(=O)n(Cc3ccccc3)c2c1`, active: -4%.
With `COC(=O)c1ccc(NC(=O)CCc2c(C)nn(-c3ccc(N4CCCCC4)nn3)c2C)cc1` the figure was inactive: 83%; with `NC(=O)CSc1nnc(C2CC2)n1Cc1ccccc1`, inactive: 93%.
As for `CC(=O)Nc1nonc1-c1nnc(SCc2ccccc2)n1C`, the survival was inactive: 81%.
Consider `COc1ccc(-n2nc(C(=O)Nc3cc(C)ccn3)c3c4ccccc4n(C)c3c2=O)cc1Cl`, for which the survival was inactive: 90%.
With `O=c1c2oc3ccccc3c2n(Cc2cccc(F)c2)c(=O)n1Cc1ccc2c(c1)OCO2` the figure was inactive: 86%.
Under `COC(=O)c1cccc(CN2C(=O)SC(Nc3ccc(C)cc3)C2=O)c1` (stereo unspecified) stands inactive: 71%.
With `Cc1ccccc1CNC(=O)C(=O)NCC(c1cccs1)S(=O)(=O)c1cccs1` (stereo unspecified) the figure was inactive: 115%; with `C=Cc1ccc(Cn2c(SCC(=O)N3CCN(c4ccc(F)cc4)CC3)nc3ccccc32)cc1`, inactive: 75%; with `CCc1ccc(NC(=O)Cn2c(=O)c3cc(Cl)ccc3n3nncc23)cc1`, inactive: 92%.
`CCOc1ccc(-c2cc(C(=O)NCCc3ccc(OC)c(OC)c3)[nH]n2)cc1`: the survival is inactive: 73%.
With `C=CCn1c2ccccc2c2ccccc21` the figure was inactive: 80%.
With `CN1CC(=O)N(CC(=O)Nc2ccc(OC(F)(F)F)cc2)c2ccccc2C1=O` the figure was inactive: 69%.
In the case of `Cc1ccc(C)c(C(C)c2ccc(C)nc2)c1` (stereo unspecified), the survival is inactive: 119%.
As for `COc1cc(C2CC(=O)Nc3c2c(=O)n(C)c2ncnn32)cc(OC)c1OC` (stereo unspecified), the survival is inactive: 143%.
Under `CCOC(=O)c1c(NC(=O)c2cc(CC)on2)sc(C(C)=O)c1C` stands inactive: 80%; under `Cc1cccc(NC(=O)/C(C#N)=C/c2ccc(C)o2)c1`, inactive: 77%.
Under `CCOC(=O)c1ccc(NC(=O)CCc2nc3cccnc3n2Cc2cccs2)cc1` stands inactive: 82%.
With `Cc1ccc(S(=O)(=O)c2cn(CC(=O)Nc3ccc(Cl)cc3)c3ccc(F)cc3c2=O)cc1C` the figure was inactive: 56%; with `O=S(=O)(NC1CCCC1)c1ccc(Br)cc1`, inactive: 116%; with `S=c1nc[nH]c2c1oc1ccccc12`, inactive: 96%.
In the case of `CC(=O)c1ccc(N2CCN(c3ccc4cc(S(=O)(=O)N5CCC(C)CC5)ccc4n3)CC2)cc1`, the survival was inactive: 71%.
As for `COc1ccc(CCN2CCC(CNC(=O)c3cnn(-c4cccc(Cl)c4)c3C3CCN(C(=O)OC(C)(C)C)CC3)CC2)cc1`, the survival is inactive: 92%.
As for `Cc1cccc(Cn2c(Cc3ccccc3)nc3ccccc32)c1`, the survival was active: 29%.
`O=C(CN1c2ccccc2S(=O)(=O)c2ccccc21)Nc1cccc(C(F)(F)F)c1`: the survival is inactive: 88%.
Under `COc1ccc(N2CCN(C(=O)C3CCN(c4nc5ccc(C)cc5[nH]4)CC3)CC2)cc1` stands inactive: 72%.
As for `CSc1ccc(CCNC(=O)c2c(C)oc3ncn(C)c(=O)c23)cc1`, the survival is active: -4%.
With `CCOC(=O)c1cnc(N2CCN(c3ccc(OC)cc3)CC2)c2ccccc12` the figure was inactive: 89%.
As for `COc1ccccc1N1CCN(c2ncnc3c2c(-c2ccccc2)cn3-c2cccc(C)c2)CC1`, the survival is inactive: 84%.
Regarding `Cc1cc(C)n(CC(=O)n2c3ccccc3c3ccccc32)n1`, the survival is inactive: 96%.
With `CC1CCN(S(=O)(=O)c2csc(C(N)=O)c2)CC1` the figure was inactive: 87%; with `CCN1CCN(c2ncnc3c2cnn3-c2cc(Cl)ccc2C)CC1`, inactive: 134%; with `CCOC(=O)c1c(S(=O)(=O)NCC(=O)N(C)Cc2ccccc2)c(C)n(C)c1C`, inactive: 80%.
Regarding `O=C(CSc1oc(-c2ccc(F)cc2)nc1S(=O)(=O)c1ccc(Br)cc1)NC1CCCCC1`, the survival is inactive: 68%.
With `CCCOc1ccc(C2c3c(oc4ccc(F)cc4c3=O)C(=O)N2CCc2ccc(OC)cc2)cc1` (stereo unspecified), the survival is inactive: 62%.
Under `Cc1ccc(CSc2nc3cccnc3n2Cc2ccc(C(=O)NC3CCCCC3)cc2)cc1` stands inactive: 71%.
Under `CCOc1ccc2c(c1)c(=O)c(S(=O)(=O)c1ccc(C)cc1)cn2Cc1ccccc1Cl` stands inactive: 92%.
